According to the supplement of paper PMC4466236:
In all, about 33,000 sequences were measured (“E-score (dimensionless, -0.5 to 0.5)”: median about -0.058, highest 2% from about 0.35 on). This is one part of the list.

Test system: MvaT
Experiment: PBM 8-mer E-score (mean of HK and ME arrays) (E-score (dimensionless, -0.5 to 0.5)); higher = stronger relative binding preference; most listed sequences are background and not binding sites
Method in brief: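 Reported values are rank-based E-scores, taken as the mean of two universal arrays and parsed with a custom script. Each 8-mer score falls between -0.5 and 0.5. The arrays, ME and HK, were double-stranded 60-mers with a constant 25-mer primer region and a variable 35-mer region covering all 8-mers. They were probed, by an earlier protocol, with full-length P. aeruginosa MvaT carrying an N-terminal glutathione S-transferase fusion.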

Question: How did the “PBM 8-mer E-score” value turn out when AACCCTGG was run?
Answer: -0.22

Question: With ACATATCT as the sequence, how does the “PBM 8-mer E-score” value read?
Answer: 0.311

Question: ACTTAGCC was tested. Which “PBM 8-mer E-score” value did it give?
Answer: 0.0311

Question: With CGCTGTTA as the sequence, how does the “PBM 8-mer E-score” value read?
Answer: 0.0457

Question: With AATGTGTG as the sequence, how does the “PBM 8-mer E-score” value read?
Answer: 0.0292

Question: Which “PBM 8-mer E-score” value does the source give for CCTTGACA here?
Answer: -0.0472

Question: For CTTTTTGA, which “PBM 8-mer E-score” value is on record?
Answer: 0.11

Question: For AACAAAGG, which “PBM 8-mer E-score” value is on record?
Answer: 0.136

Question: CCGACTTA was tested. Which “PBM 8-mer E-score” value did it give?
Answer: 0.0502

Question: Which “PBM 8-mer E-score” value does the source give for CCACCACA here?
Answer: 0.0416

Question: For GTGTCGAA, which “PBM 8-mer E-score” value is on record?
Answer: -0.24

Question: With AGAGTCAG as the sequence, how does the “PBM 8-mer E-score” value read?
Answer: -0.161

Question: With ATTGTGTA as the sequence, how does the “PBM 8-mer E-score” value read?
Answer: 0.188

Question: For AGCAGGAG, which “PBM 8-mer E-score” value is on record?
Answer: -0.358

Question: With GGAAAACC as the sequence, how does the “PBM 8-mer E-score” value read?
Answer: -0.176

Question: GCCCGTCA was tested. Which “PBM 8-mer E-score” value did it give?
Answer: -0.25

Question: How did the “PBM 8-mer E-score” value turn out when CTACATTC was run?
Answer: -0.000766

Question: How did the “PBM 8-mer E-score” value turn out when TGCTTTAA was run?
Answer: 0.094

Question: With GACGTTCA as the sequence, how does the “PBM 8-mer E-score” value read?
Answer: -0.218

Question: With GCGGCCCA as the sequence, how does the “PBM 8-mer E-score” value read?
Answer: -0.357

Question: CTATTCCC was tested. Which “PBM 8-mer E-score” value did it give?
Answer: 0.0347

Question: With ATTGGGAA as the sequence, how does the “PBM 8-mer E-score” value read?
Answer: 0.00113

Question: ATTAGTAA was tested. Which “PBM 8-mer E-score” value did it give?
Answer: 0.332

Question: How did the “PBM 8-mer E-score” value turn out when ATCGTTCG was run?
Answer: -0.21

Question: Which “PBM 8-mer E-score” value does the source give for GAGCCCTA here?
Answer: -0.238

Question: Which “PBM 8-mer E-score” value does the source give for CACGAATC here?
Answer: 0.0115

Question: With CGTATACA as the sequence, how does the “PBM 8-mer E-score” value read?
Answer: 0.17

Question: Which “PBM 8-mer E-score” value does the source give for CCCTTACA here?
Answer: -0.0977

Question: With CCGAGTGC as the sequence, how does the “PBM 8-mer E-score” value read?
Answer: -0.154

Question: For AATCCTGA, which “PBM 8-mer E-score” value is on record?
Answer: 0.0241

Question: For CATGTTCA, which “PBM 8-mer E-score” value is on record?
Answer: -0.0267

Question: How did the “PBM 8-mer E-score” value turn out when CATCCATC was run?
Answer: -0.105

Question: Which “PBM 8-mer E-score” value does the source give for GCGTCGAC here?
Answer: -0.247

Question: Which “PBM 8-mer E-score” value does the source give for GTTCTTGA here?
Answer: -0.043

Question: For CATGAGTC, which “PBM 8-mer E-score” value is on record?
Answer: -0.0795

Question: With TAGAGCCA as the sequence, how does the “PBM 8-mer E-score” value read?
Answer: -0.138

Question: How did the “PBM 8-mer E-score” value turn out when AATGAATC was run?
Answer: 0.211

Question: How did the “PBM 8-mer E-score” value turn out when CATTTTTA was run?
Answer: 0.242

Question: Which “PBM 8-mer E-score” value does the source give for AGCTGCTA here?
Answer: -0.226

Question: Which “PBM 8-mer E-score” value does the source give for CACTAATC here?
Answer: 0.126

Question: With GCTACGAC as the sequence, how does the “PBM 8-mer E-score” value read?
Answer: -0.224

Question: How did the “PBM 8-mer E-score” value turn out when CACTTCTG was run?
Answer: 0.0733

Question: How did the “PBM 8-mer E-score” value turn out when ACCGGCAG was run?
Answer: -0.195

Question: For AACGACTC, which “PBM 8-mer E-score” value is on record?
Answer: 0.0548

Question: Which “PBM 8-mer E-score” value does the source give for CAGCGCGC here?
Answer: -0.206

Question: How did the “PBM 8-mer E-score” value turn out when GCTACACA was run?
Answer: -0.0734

Question: How did the “PBM 8-mer E-score” value turn out when CTGGAAAC was run?
Answer: -0.0862

Question: With CTCTTCAG as the sequence, how does the “PBM 8-mer E-score” value read?
Answer: -0.143

Question: How did the “PBM 8-mer E-score” value turn out when AGGCGCTG was run?
Answer: -0.199

Question: How did the “PBM 8-mer E-score” value turn out when ATGTTCAC was run?
Answer: 0.116

Question: CCGACATC was tested. Which “PBM 8-mer E-score” value did it give?
Answer: -0.124

Question: For GCCGTTTA, which “PBM 8-mer E-score” value is on record?
Answer: 0.0727

Question: For CCTACGGA, which “PBM 8-mer E-score” value is on record?
Answer: -0.265

Question: For CGTTTGTA, which “PBM 8-mer E-score” value is on record?
Answer: 0.122

Question: Which “PBM 8-mer E-score” value does the source give for GAAGTGGC here?
Answer: -0.107

Question: For ATTCCAGA, which “PBM 8-mer E-score” value is on record?
Answer: -0.0246

Question: How did the “PBM 8-mer E-score” value turn out when CATGGGGA was run?
Answer: -0.172

Question: With GATGTCAA as the sequence, how does the “PBM 8-mer E-score” value read?
Answer: -0.0616

Question: For TATCCGCA, which “PBM 8-mer E-score” value is on record?
Answer: 0.142

Question: For GAGAATCA, which “PBM 8-mer E-score” value is on record?
Answer: -0.0307

Question: How did the “PBM 8-mer E-score” value turn out when AGAACAGA was run?
Answer: 0.1

Question: For CTTTTGAC, which “PBM 8-mer E-score” value is on record?
Answer: -0.000252

Question: Which “PBM 8-mer E-score” value does the source give for TGGAAAAA here?
Answer: 0.0629

Question: CGACCAAG was tested. Which “PBM 8-mer E-score” value did it give?
Answer: -0.131

Question: Which “PBM 8-mer E-score” value does the source give for AGTACTAG here?
Answer: 0.02

Question: How did the “PBM 8-mer E-score” value turn out when CATGCTCC was run?
Answer: -0.179

Question: Which “PBM 8-mer E-score” value does the source give for AGTGCGGG here?
Answer: -0.139

Question: AGGGAATA was tested. Which “PBM 8-mer E-score” value did it give?
Answer: 0.0758

Question: How did the “PBM 8-mer E-score” value turn out when ATGCATGG was run?
Answer: -0.134

Question: Which “PBM 8-mer E-score” value does the source give for ACGTACGC here?
Answer: -0.105

Question: For CAAGCATC, which “PBM 8-mer E-score” value is on record?
Answer: -0.121

Question: How did the “PBM 8-mer E-score” value turn out when GTAAGTTA was run?
Answer: 0.396

Question: With ATCTGGTA as the sequence, how does the “PBM 8-mer E-score” value read?
Answer: -0.114

Question: Which “PBM 8-mer E-score” value does the source give for AGACCTCC here?
Answer: -0.277

Question: With CTCGTCTC as the sequence, how does the “PBM 8-mer E-score” value read?
Answer: -0.199

Question: Which “PBM 8-mer E-score” value does the source give for ACAAGGAC here?
Answer: -0.136

Question: How did the “PBM 8-mer E-score” value turn out when CGTTATTA was run?
Answer: 0.364

Question: ACCCGTCA was tested. Which “PBM 8-mer E-score” value did it give?
Answer: -0.117

Question: Which “PBM 8-mer E-score” value does the source give for AGTGCAAA here?
Answer: 0.135

Question: How did the “PBM 8-mer E-score” value turn out when CTTTGTTA was run?
Answer: 0.25

Question: For CACGCTCG, which “PBM 8-mer E-score” value is on record?
Answer: -0.168

Question: AGCGCCCC was tested. Which “PBM 8-mer E-score” value did it give?
Answer: -0.195

Question: Which “PBM 8-mer E-score” value does the source give for CTTGAGGA here?
Answer: -0.0094

Question: ATTATGAC was tested. Which “PBM 8-mer E-score” value did it give?
Answer: 0.187

Question: Which “PBM 8-mer E-score” value does the source give for CGGGACCC here?
Answer: -0.259

Question: With AATGGGAC as the sequence, how does the “PBM 8-mer E-score” value read?
Answer: -0.159

Question: How did the “PBM 8-mer E-score” value turn out when CACGATCG was run?
Answer: -0.122

Question: For CAACATAA, which “PBM 8-mer E-score” value is on record?
Answer: 0.271

Question: For CAAATCGG, which “PBM 8-mer E-score” value is on record?
Answer: -0.078

Question: Which “PBM 8-mer E-score” value does the source give for GTGAGCAC here?
Answer: -0.167

Question: For CAGGTGCA, which “PBM 8-mer E-score” value is on record?
Answer: -0.0913

Question: Which “PBM 8-mer E-score” value does the source give for AACCTTGC here?
Answer: -0.0834

Question: With CTTTCAAC as the sequence, how does the “PBM 8-mer E-score” value read?
Answer: 0.0504

Question: How did the “PBM 8-mer E-score” value turn out when CCTCAGGC was run?
Answer: -0.25

Question: How did the “PBM 8-mer E-score” value turn out when ACCCTTAC was run?
Answer: -0.128

Question: Which “PBM 8-mer E-score” value does the source give for CGATAAAA here?
Answer: 0.17

Question: Which “PBM 8-mer E-score” value does the source give for AAGACCGG here?
Answer: -0.0679

Question: Which “PBM 8-mer E-score” value does the source give for GTCGTCCA here?
Answer: -0.15

Question: Which “PBM 8-mer E-score” value does the source give for ACATATGA here?
Answer: 0.179

Question: Which “PBM 8-mer E-score” value does the source give for CGGACTCC here?
Answer: -0.218

Question: For AGGGTTAG, which “PBM 8-mer E-score” value is on record?
Answer: -0.216

Question: How did the “PBM 8-mer E-score” value turn out when GGGCGACC was run?
Answer: -0.294

Question: Which “PBM 8-mer E-score” value does the source give for GCGGAACA here?
Answer: 0.0739

Question: For CAGCTAGG, which “PBM 8-mer E-score” value is on record?
Answer: -0.307

Question: With CACGTCTG as the sequence, how does the “PBM 8-mer E-score” value read?
Answer: -0.164

Question: Which “PBM 8-mer E-score” value does the source give for ACGTCACA here?
Answer: -0.00152

Question: Which “PBM 8-mer E-score” value does the source give for CGATATAG here?
Answer: 0.196

Question: How did the “PBM 8-mer E-score” value turn out when CGGTGAAC was run?
Answer: -0.0689

Question: How did the “PBM 8-mer E-score” value turn out when CAACTGCA was run?
Answer: -0.0768

Question: With AAATACAC as the sequence, how does the “PBM 8-mer E-score” value read?
Answer: 0.0784
